# Measurements published in PubChem BioAssay AID624296 (National Center for Advancing Translational Sciences (NCATS), 2012).
# Among all 350,000 compounds or so, about 9,900 (2.8%) were called active. Inconclusive means that the source gave no clear call. Such entries were picked first, then a sample of the others. Calls follow the shape of the dose curve; as a rule, active = well fitted activation curve with a large enough effect; inconclusive = small, poorly fitted or top-dose-only effect; inactive = no such curve, though single readings can be large or run the other way. Potencies of inconclusive entries are left out as doubtful fits.
# Assay: A quantitative high throughput screen for small molecules that induce DNA re-replication in MCF 10a normal breast cells. Also: nearly all actives have a fitted effect of over 50% in size. As to activity, positive = re-replication: % of control where 0% means no effect.
# Details: MCF 10A DNA re-replication, Hoechst nuclear intensity, 48 h; activity, positive = re-replication: at 46.1 µM (top of the series)
# Potency is read from the fitted curve at half-maximal effect; tags tell the direction and shape of the fitted curve.
Compound,Potency,"activity, positive = re-replication"
COc1ccc(-n2nc(C(=O)NCC(=O)NC3CCCC(C)C3C)c3ccccc3c2=O)c(OC)c1 (configuration not stated),"inconclusive [activator, single point]",–
Cc1sc(NC(=O)C2=COCCO2)nc1-c1ccc(Br)cc1,"inconclusive [activator, single point]",–
CCOC(=O)[C@H]1[C@H]2COc3ccc(Br)cc3[C@H]2N2C(=O)CN(Cc3ccc(C)cc3)C(=O)[C@@]12C,"inconclusive [activator, full curve, poor fit]",–
COc1cc(OC)cc(C(=O)Nc2nc3ccc(S(C)(=O)=O)cc3s2)c1,–,inactive: 3.58%
CCOc1cc(NC(=S)NCC2CCCO2)c(OCC)cc1NC(=O)c1cccc(C)c1 (configuration not stated),"inconclusive [activator, single point]",–
O=C(CCC1COc2ccccc2O1)Nc1ccc(Cl)cn1 (configuration not stated),"inconclusive [activator, single point]",–
CSc1nsc2nc(=O)c(/C=C3\C(C)=Nc4ccccc43)c(N)n12,"inconclusive [activator, single point]",–
COc1ccc(-c2cc(C(=O)N(C)CC(=O)Nc3ccccc3C(F)(F)F)c3ccccc3n2)cc1OC,"inconclusive [activator, partial curve, poor fit]",–
CC1(C(=O)O)CCC(C(N)=O)C1(C)C (configuration not stated),"inconclusive [activator, single point]",–
CCCc1nc(N2CCCC2)c(C#N)c2c1CCCC2,"inconclusive [activator, single point]",–
C[C@H]1CCC[C@]2(C)C[C@H]3OC(=O)C(CN4CCCCCC4)[C@H]3C=C12 (some centres not stated),"inconclusive [activator, single point]",–
Cc1ccc2cc(CN(CCCN3CCOCC3)C(c3nnnn3Cc3ccco3)C(C)C)c(=O)[nH]c2c1C (configuration not stated),"inconclusive [activator, single point]",–
Cc1nn(-c2nc3ccccc3s2)c(C)c1Oc1ccccc1O,"inconclusive [activator, partial curve, poor fit]",–
N#C/C=C1/NC(=O)c2ccccc2S1,"inconclusive [activator, single point]",–
CCOC(=O)c1nnc(-c2ccccc2)nc1NCc1ccccc1,"inconclusive [activator, single point]",–
CNc1nc2c(c(=O)[nH]c(=O)n2C)n1CCCc1ccccc1,"inconclusive [activator, single point]",–
O=C(CN(C1CCCCC1)S(=O)(=O)c1ccc(F)cc1)NCC1CCCO1 (configuration not stated),"inconclusive [activator, full curve, poor fit]",–
COc1ccc(OC)c(NC(=O)c2sc3nc(C)cc(C)c3c2N)c1,active: 11.6 µM,–
COc1cc(NC(=O)N2c3ccccc3Sc3ccccc32)c(C(=O)O)cc1OC,"inconclusive [activator, partial curve, poor fit]",–
C=CCSc1n[nH]c(-c2ccc(OCCC)cc2)n1,–,inactive: -5.54%
Cc1cc(C)cc(CC(Cc2nc3ccccc3[nH]2)c2nc3ccccc3[nH]2)c1 (configuration not stated),"inconclusive [activator, single point]",–
O=[N+]([O-])c1cccnc1NCCc1c[nH]c2ccccc12,–,inactive: 3.75%
Cc1cc(Cl)ccc1OC(C)C(=O)Nc1ccc(C(=O)Nc2ccccc2C(=O)O)cc1 (configuration not stated),"inconclusive [activator, partial curve, poor fit]",–

Compound,Potency,"activity, positive = re-replication"
Cc1onc(-c2c(F)cccc2Cl)c1C(=O)Nc1cccc2nsnc12,"inconclusive [activator, single point]",–
C=CCN(CC=C)S(=O)(=O)c1ccc(C(=O)Nc2nc3c(s2)CCc2ccccc2-3)cc1,"inconclusive [activator, single point]",–
Cc1ccc(-n2cc(CN(C)Cc3nccn3C)c(-c3ccc(F)cc3)n2)cc1,"inconclusive [activator, partial curve, poor fit]",–
O=C(NCc1ccccc1)C(c1ccccc1)N(C(=O)c1csnn1)C1CC1 (configuration not stated),"inconclusive [activator, single point]",–
Cc1nn(Cc2ccccc2)c(C)c1C(=O)NCCN1C(=O)S/C(=C\c2ccccc2)C1=O,active: 25.9 µM,–
COc1ccc(-c2csc3ncnc(N4CCN(c5ccccc5[N+](=O)[O-])CC4)c23)cc1,active: 16.4 µM,–
O=c1c2c3c(sc2ncn1Cc1ccc(F)cc1)CCC3,"inconclusive [activator, single point]",–
CCCCCCC(C)NC(=S)Nc1cc(S(=O)(=O)N(C)C)ccc1C (configuration not stated),active: 18.4 µM,–
CCOC(=O)c1cnc(-n2nc(C)cc2C)nc1NC,–,inactive: 1.14%
O=C(c1ccc(COc2c(F)c(F)cc(F)c2F)o1)N1CCN(c2ccccc2)CC1,"inconclusive [activator, single point]",–
O=C1OC2(c3ccccc31)c1ccccc1-c1ccccc12,"inconclusive [activator, single point]",–
Cc1cc(C)c(C(=O)Nc2ccc(Br)c(C(F)(F)F)c2)c(C)c1,active: 23.1 µM,–
O=C(Oc1cccccc1=O)c1ccccc1,"inconclusive [activator, single point]",–
COc1ccc2c(c1)/C(=C\c1cccc(/C=C3/C(=O)Nc4ccc(OC)cc43)n1)C(=O)N2,"inconclusive [activator, full curve, poor fit]",–
CCCCNc1nc(N)nc(-c2cc(Cl)ccc2O)n1,active: 20.6 µM,–
Cc1ccc(NC(=O)Cn2cc(S(=O)(=O)c3ccc(C)cc3)c(=O)c3cc(F)ccc32)cc1,"inconclusive [activator, partial curve, poor fit]",–
CCn1c(-c2nn(C)c(C)c2Cl)n[nH]c1=S,–,inactive: 2.75%
CCOc1cccc(-c2c(C(=O)N/N=C/c3c(F)cccc3Cl)nnn2-c2nonc2N)c1,–,inactive: 8.92%
Cc1cccc(/C=N\NC(=O)c2ccc(Cl)cc2)c1O,–,inactive: 13%
Cc1nn(-c2ccccc2)c(C)c1C(=O)OCC(=O)N(C)c1ccccc1,–,inactive: 18.3%
CCO[C@@H]1OC(C(=O)NCc2ccccc2)=C[C@H](c2ccc(C(F)(F)F)cc2)[C@H]1CCCO,active: 2.91 µM,–
CCOC(=O)C1=C(C)NC2=C(C(=O)OC2)C1c1ccccc1 (configuration not stated),"inconclusive [activator, single point]",–
O=Cc1sc(Nc2ccccc2)nc1Cl,"inconclusive [activator, full curve, poor fit]",–

Compound,Potency,"activity, positive = re-replication"
O=C(c1cc([N+](=O)[O-])ccc1N1CCOCC1)N1CCCC1,"inconclusive [activator, single point]",–
N#Cc1c(-c2ccccc2)cc(-c2ccc3c(c2)OCO3)[nH]c1=O,"inconclusive [activator, partial curve, poor fit]",–
Cn1c(=O)c2c(-c3ccccc3F)c3c(nc2n(C)c1=O)-c1ccccc1C3O (configuration not stated),"inconclusive [activator, partial curve, poor fit]",–
COc1cc(/C=N/NC(=O)c2cccc3ccccc23)cc(OC)c1OC,–,inactive: 0.199%
Brc1ccc(-c2cn3c(n2)CCc2ccc4cccnc4c2-3)cc1,active: 23.1 µM,–
COc1ccc(C(=O)c2sc3nc(-c4ccccc4)ccc3c2N)cc1OC,"inconclusive [activator, partial curve, poor fit]",–
CCCOC(=O)c1ccc(NC(=O)c2c(Cl)ccc(Cl)c2OC)cc1,"inconclusive [activator, single point]",–
O=C(Oc1oc(-c2ccco2)nc1C=Nc1ccccc1)c1ccco1,–,inactive: 0.183%
Cc1ccc(NCc2ccccc2OCc2ccccc2F)cc1,"inconclusive [activator, single point]",–
Cc1nn(-c2ccccc2)c(Cl)c1/C=N/NC(=O)c1ccccc1NS(=O)(=O)c1cccs1,"inconclusive [activator, single point]",–
CC(C)c1ccc2c(c1)c(SC(C)(C)C)c(CC(C)(C)C(=O)O)n2Cc1ccc(Cl)cc1,active: 2.91 µM,–
O=[N+]([O-])c1ccc2c(c1)C(O)n1nc(-c3ccccc3)nc1S2 (configuration not stated),"inconclusive [activator, partial curve, poor fit]",–
Cc1nn(-c2ccccc2)c2[nH]c(=O)c(CNc3ccc4c(c3)OCCO4)cc12,"inconclusive [activator, single point]",–
CC(C)COc1ccc(-c2nn(-c3ccccc3)cc2CO)cc1,"inconclusive [activator, single point]",–
O=C(CN1C(=O)c2ccccc2C1=O)NC1CCCCC1,–,inactive: 1.5%
CC1CCCCN1C(=O)CSc1nc2ccsc2c(=O)n1Cc1ccccn1 (configuration not stated),–,inactive: 2.14%
COc1ccc(OC)c(C2C3=C(COC3=O)Nc3cc4c(cc32)OCO4)c1 (configuration not stated),active: 0.259 µM,–
C[C@@H]1CN([C@@H](C)CO)C(=O)c2cc(NC(=O)CCC(F)(F)F)ccc2O[C@H]1CN(C)Cc1ccc(Cl)c(Cl)c1,"inconclusive [activator, full curve, poor fit]",–
Clc1ccc(CSc2ncn(-c3ccccc3)n2)cc1,–,inactive: 5.56%
Cc1ccc(NC(=O)COC(=O)CSCC(=O)Nc2cc(C)on2)c(C)c1,"inconclusive [activator, partial curve, poor fit]",–
CN(C)CCCNC(=S)N(Cc1cccs1)Cc1cc2cc3c(cc2[nH]c1=O)OCCO3,"inconclusive [activator, single point]",–
